Data published in paper PMC2627783 (Biochemistry, 2008).

Key:
HscB(E97A,E100A,E104A) = target: T1, HscB(E97A,E100A,E104A) (E. coli, UniProt P0A6L9 1-171, E97A | E100A | E104A); test: cell-based or functional assay
T1 sequence (looked up): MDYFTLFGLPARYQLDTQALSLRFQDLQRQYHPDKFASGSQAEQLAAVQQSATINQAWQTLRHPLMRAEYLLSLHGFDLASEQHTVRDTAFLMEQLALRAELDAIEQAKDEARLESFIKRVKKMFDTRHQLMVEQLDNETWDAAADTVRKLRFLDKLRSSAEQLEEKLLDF

HscB(L92A,M93A,F153A) = target: T2, HscB(L92A,M93A,F153A) (E. coli, UniProt P0A6L9 1-171, L92A | M93A | F153A); test: cell-based or functional assay
T2 sequence (looked up): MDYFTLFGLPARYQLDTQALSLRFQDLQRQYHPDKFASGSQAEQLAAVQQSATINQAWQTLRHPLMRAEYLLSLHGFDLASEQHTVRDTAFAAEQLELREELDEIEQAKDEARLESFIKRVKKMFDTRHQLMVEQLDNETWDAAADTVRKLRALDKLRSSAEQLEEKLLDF

HscA ATPase activity, 23 °C, with HscB mutant and IscU: maximal stimulation (HscB(E97A,E100A,E104A)): 404 fold
HscA ATPase activity, 23 °C, with HscB mutant and IscU: maximal stimulation (HscB(L92A,M93A,F153A)): 97 fold
B1: IscU (apo form) (natural protein, E. coli, UniProt P0ACD4 1-128, looked up)
chain: MAYSEKVIDHYENPRNVGSFDNNDENVGSGMVGAPACGDVMKLQIKVNDEGIIEDARFKTYGCGSAIASSSLVTEWVKGKSLDEAQAIKNTDIAEELELPPVKIHCSILAEDAIKAAIADYKSKREAK
